This is one part of the list.

B1: 108216868_108216988_1542_3pUTR_ENSMUSG00000068740_ENSMUST00000090558|mouse|control|control (ssRNA)
RNA: GGGAGUUCUACAGUCCGACGAUCAGGACGGUGGCCUGGAAAGGGGUGCUGACAAAGAUGGGGGCGUUAUCGUUGAUGUCUAGGACUUGCACUGUUACUAGGCCAGAGACAUUGGAGAGUGGAGGACGGCCACCGUCCUGAGCCCAACAGAGGAUUGAGCAUCA
B2: chr11:87793471:87793472:-_ENSMUSG00000020483_ENSMUST00000020775|mus_mus|mus_mus_mus_hu_False|68_88 (ssRNA)
RNA: GGGAGUUCUACAGUCCGACGAUCUGGACUUGAAAAUAAAAGAAUAAGCUAGAUUUCCCACCCCCCCACAGUGUCAACCCUACACGAGAGUUUUGAAGGCGACUCAUGAAAAUCAGCAGCUCAAACGGCAAUGACCACCCCACCCAACAGAGGAUUGAGCAUCA
B3: chr1:84754351:84754352:-_ENSMUSG00000026219_ENSMUST00000027421|mus_hu|FALSE|FALSE (ssRNA)
RNA: GGGAGUUCUACAGUCCGACGAUCAGCAUGAUUUUUCAGAACAUCCUUCAGAAGUUCAGCAUCCGCAAAAUAAAUUAUCCUAAGAAUUGCUCUAAGGCACUUAUGUCUGACCGCAGGUCCUGCUGAGGAACUAUACACUUCAUACAACAGAGGAUUGAGCAUCA
B4: chr4:57860909:57860910:+_ENSG00000047315_ENST00000314595|hu_hu|motif|central (ssRNA)
RNA: GGGAGUUCUACAGUCCGACGAUCAUCUGUCAAGCCAUUCAAAAGGCAGUAAGUUGACCGCAACAUAAUUGGAAUUUUUCCGGUAAAAGUUUUCUGAUGCUGAGUCUGAAGUUGUUCUUCACCUUCUUUAAUGACUGUUUUUGUCAACAGAGGAUUGAGCAUCA
B5: chr1:21268426:21268427:-_ENSG00000075151_ENST00000400422|hu_mus|motif|central (ssRNA)
RNA: GGGAGUUCUACAGUCCGACGAUCGUUCUCCUUGGCUGAUAAUUUUUCUCCAACUCCAUUCAUUUCAUUAAUUAGGAUAGUACGGGAAAUUAGCUGACUAUCAUGAGGCGCUACGCUACAGGGUUUCUUGCAUAUAUCACUGUUCAACAGAGGAUUGAGCAUCA
B6: chr1:2330915:2330916:+_ENSG00000157916_ENST00000443438|hu_hu|motif|central (ssRNA)
RNA: GGGAGUUCUACAGUCCGACGAUCAGGACCGUCAUCUGAGUCUUCCAUUAAGGAAGGAUCCACUUUGGGAGAAAGAAAAGCGGUGAAAAGAUUUAGAUGGUAGAUCCCCAAGGCAUAGGUCACAAUGUACCAACCCUGCAGCAGCAACAGAGGAUUGAGCAUCA
B7: chr3:25639645:25639646:-_ENSG00000077097_ENST00000264331|hu_hu|FALSE|FALSE (ssRNA)
RNA: GGGAGUUCUACAGUCCGACGAUCAUCAGACAGUACGUGACAUUUCAAUGAGUAAAAAAGAGCAUAAAACUGUAUGUGUAAGAACAAAAUGUUAAAAGGCCUACCACAAUAAUAAAAAACCGUCAAUUACAUCAUCACAUUAAACAACAGAGGAUUGAGCAUCA
B8: chr9:95013113:95013114:-_ENSG00000196305_ENST00000443024|hu_hu|hu_hu_hu_mus_False|48_98 (ssRNA)
RNA: GGGAGUUCUACAGUCCGACGAUCCUCAGUCAGAAAGGGUGUGUAGGGGGCCAUCAGUCUGCACAGAGAAAGCAGGACACUGAACAGGGUUUCUAGGGCCAUGACACAGUCUUCCACCCCACUCUCACCCUUUAACCUCCUCCUCAACAGAGGAUUGAGCAUCA
B9: chr1:80268134:80268135:-_ENSMUSG00000004364_ENSMUST00000163119|mus_hu|FALSE|FALSE (ssRNA)
RNA: GGGAGUUCUACAGUCCGACGAUCGACUCUGUGUAGUUUGGAUGUGAAUUGAUCAUUAACUGUAAAUAUAUGACCAUUUUCUAUUUCCUUUGAUUUGGGUUCUUUUGUAAGAACCCGCUGUGUUGGUUUACCACAGGCGAGGGACAACAGAGGAUUGAGCAUCA
B10: chr9:40579289:40579290:+_ENSMUSG00000032024_ENSMUST00000034522|mus_mus|FALSE|FALSE (ssRNA)
RNA: GGGAGUUCUACAGUCCGACGAUCAUUCUUCACCUUGCAGGUGUAUCUGCCUUCAUCACUGGGUUUCAGAGGCUCAAUCUGCAGGGAAGCAUCUCCUGCCAGGAAGUUGGAAGCGAAGGCCACUCGGCCCUUCUGCUCCUCGGUCAACAGAGGAUUGAGCAUCA
B11: chr7:140404665:140404666:+_ENSG00000090266_ENST00000247866|hu_hu|hu_hu_hu_mus_False|18_18 (ssRNA)
RNA: GGGAGUUCUACAGUCCGACGAUCUGCUCCUACUCGUCCAGAGAGUUUACAGUGUCAGUCCUCGUCAUCAGGAGGGAUUCCCAGUUCUUCAUCUGUCCACUGUGAAGGAUCUGGAUACGGAAAGUGACCCAGCACAGCAUCCGACAACAGAGGAUUGAGCAUCA
B12: chr8:121455507:121455508:-_ENSG00000172172_ENST00000306185|hu_mus|FALSE|FALSE (ssRNA)
RNA: GGGAGUUCUACAGUCCGACGAUCUGCAGUUUGUUGGAUGCUAUAACCGCAAGUUUGCCAGGGGGCUGCAUUUUGCCAUCUAAGAGAUACCACAUUCGAGCAAAAGUGGCCCAUUGCUGGGGCGCCCUAGAGAAGCUGGACAUGCAACAGAGGAUUGAGCAUCA
B13: chr1:220276048:220276049:+_ENSG00000067704_ENST00000302637|hu_hu|hu_hu_hu_mus_True|38_78 (ssRNA)
RNA: GGGAGUUCUACAGUCCGACGAUCGCAAAUUGCCUGGUUGGCGGGAAUUGUCCAAGGUUGUGUGGUCCAAACUAAAACGCUAACAGGGGAUGAGGCAUCUAUAAGAGACUCCAACUUCGGAGGAGGUCUCAGGAGGGGGAAUCUCAACAGAGGAUUGAGCAUCA
B14: chr4:38126685:38126686:+_ENSG00000065882_ENST00000510573|hu_hu|motif|central (ssRNA)
RNA: GGGAGUUCUACAGUCCGACGAUCGUCUUUUCCAUCUGUACCAAGCCAAGGUUGGGUAGCGUGCUUUUUAUAAAGUCAACGGUGGUUUCUAGGUUUUCAUGCUGCAGAAUCAAGGGCUUAUGGCUUCCCAACAGACUUAAAGCCCAACAGAGGAUUGAGCAUCA

In this test the target is T1, UNK ZnF1-3 (human, UniProt Q9C0B0 31-174).
T1 sequence: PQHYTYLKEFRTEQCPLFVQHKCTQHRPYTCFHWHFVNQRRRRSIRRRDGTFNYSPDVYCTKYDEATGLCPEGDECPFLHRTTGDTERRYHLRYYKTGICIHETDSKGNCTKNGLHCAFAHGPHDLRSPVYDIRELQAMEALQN
In words: nsRBNS (natural sequence RNA bind-n-seq); RBNS binding buffer (assumed for nsRBNS): 25 mM Tris pH 7.5, 150 mM KCl, 3 mM MgCl2, 0.01% Triton X-100, 500 ug/ml BSA, 20 U/ml SUPERase-In, 4 C; UNK is unkempt and MSI1 is Musashi-1; names of the RNAs are library labels; protein concentration not given here; high values mean tight binding.
B1 returned a binding signal of 1.05 enrichment R.
With B2 the figure was 2.33 enrichment R; with B3, 1.67 enrichment R; with B4, 0.943 enrichment R.
Molecule B5 had a binding signal of 0.99 enrichment R.
As to B6, the binding signal was 1.67 enrichment R.
As to B7, the binding signal stood at 1.45 enrichment R.
With B8, the binding signal turned out to be 0.806 enrichment R.
With B9 the figure was 0.47 enrichment R; with B10, 0.565 enrichment R; with B11, 1.43 enrichment R.
As to B12, the binding signal turned out to be 1.13 enrichment R.
With B13 the figure was 2.06 enrichment R.
Take B14: the binding signal is 1.01 enrichment R.

The values are drawn from paper PMC12136788.
